Source: PMC5717197 (2017)

Target: T1, p31comet (Homo sapiens, UniProt Q15013)
T1 chain: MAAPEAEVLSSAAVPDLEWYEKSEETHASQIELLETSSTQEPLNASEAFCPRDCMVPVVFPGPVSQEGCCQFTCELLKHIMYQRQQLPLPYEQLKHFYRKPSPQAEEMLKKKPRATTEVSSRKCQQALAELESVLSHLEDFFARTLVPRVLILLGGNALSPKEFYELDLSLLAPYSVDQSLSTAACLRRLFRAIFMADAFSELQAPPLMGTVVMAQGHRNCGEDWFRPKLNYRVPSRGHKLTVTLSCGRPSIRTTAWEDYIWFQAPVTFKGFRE

B1: Mad2 (protein)
chain: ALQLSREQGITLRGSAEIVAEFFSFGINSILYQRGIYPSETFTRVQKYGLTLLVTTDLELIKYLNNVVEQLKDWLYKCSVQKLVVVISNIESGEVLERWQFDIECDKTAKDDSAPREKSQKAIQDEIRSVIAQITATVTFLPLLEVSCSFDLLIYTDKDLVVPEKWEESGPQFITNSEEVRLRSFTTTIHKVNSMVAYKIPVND
  Kd: 240 nM
